Experimental data taken from PubChem BioAssay AID504706 (National Center for Advancing Translational Sciences (NCATS), 2011).
Out of some 320,000 compounds screened, about 200 (0.062%) were called active. Inconclusive results, whose numbers are uncertain, are shown with a selection of clear calls. The call rests on the fitted dose curve; in most records, active means well fitted activation curve with a large enough effect; inconclusive means small, poorly fitted or top-dose-only effect; inactive means no such curve, though single readings can be large or run the other way. No potency is given beside an inconclusive call; the fits are too rough.
Potency means the concentration at half of the fitted maximal effect; tags describe the fitted curve by direction and shape.

Assay: qHTS assay for re-activators of p53 using a Luc reporter; further: nearly all actives have a fitted effect of over 45% in size; on activity change, positive = activation: % of control where 0% means no effect
Details: H1299 p53-A138V BP100-luciferase reporter, luminescence, 24 h; series mostly up to 92.2 µM; activity change, positive = activation: at the top concentration
Method in brief: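 H1299 (p53-null), stable ts p53-A138V + BP100-Luc; 1000 cells/well, Opti-MEM/10% FBS; cpd 4 pt, 1:5; 24 h, 37 deg C, 5% CO2; detection reagent 10 min RT; luminescence.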
With `Cc1c(C2(O)CCCCC2)[nH]c2ccc(C(F)(F)F)cc12` the Potency was inconclusive [activator, partial curve, poor fit].
For `N#CCOc1ccccc1/C=C/c1nc2ccccc2c(=O)[nH]1`, the Potency was inconclusive [activator, full curve, poor fit].
For `Cc1[nH]c2ccccc2c1CCNC(=O)CCC(=O)c1ccccc1`, the “activity change, positive = activation” value was inactive: 18%.
For `N#CC1=C(N)OC2=C(CCc3ccccc32)C1c1ccccc1Cl` (stereo not drawn), the Potency was inconclusive [activator, full curve].
In the case of `COC(=O)c1ccc2c(c1O)C(=O)c1ccccc1C2=O`, the Potency is reported as inconclusive [activator, full curve, poor fit].
For `COc1cc(CNCc2cccc(OC)c2OC)cc(OC)c1`, the Potency was inconclusive [activator, single point].
For `CC(=O)N/N=C/C1=CCC2CC1C2(C)C` (stereo not drawn), the “activity change, positive = activation” value was inactive: -2.31%.
In the case of `COC(=O)c1ccc2[nH]c(C3(O)CCCCC3)c(C)c2c1`, the Potency is reported as inconclusive [activator, full curve, poor fit].
With `Cc1cc(OCC(=O)N(C)Cc2ccccc2)ccc1Cl` the Potency was inconclusive [activator, single point].
In the case of `Cc1ccncc1C(N)=O`, the “activity change, positive = activation” value is reported as inactive: -2.27%.
With `c1ccc(N2CCN(c3cnc4ccccc4n3)CC2)cc1` the Potency was inconclusive [activator, partial curve, poor fit].
In the case of `Cc1cccc(/C=C(\C#N)C(=O)Nc2ccccn2)c1`, the “activity change, positive = activation” value is reported as inactive: 3.93%.
In the case of `Cn1c(SCC(=O)c2ccccc2)nnc1C1CC1`, the Potency is reported as inconclusive [activator, partial curve, poor fit].
In the case of `CCC(=O)Oc1ccc(C/C(=N\O)c2ccc(O)cc2O)o1`, the Potency is reported as inconclusive [activator, single point].
For `c1ccc2cc(Sc3ncnc4c3oc3ccccc34)ccc2c1`, the Potency was inconclusive [activator, single point].
In the case of `O=C(COc1cccnc1[N+](=O)[O-])c1c[nH]c2ccccc12`, the Potency is reported as inconclusive [activator, partial curve, poor fit].
With `Cc1nc(Nc2nc(CSc3nc4ccccc4[nH]3)cc(=O)[nH]2)nc2ccccc12` the Potency was inconclusive [activator, partial curve, poor fit].
With `O=C(Nc1cccc(F)c1)Nc1cccc(Cl)c1` the Potency was inconclusive [activator, single point].
With `S=c1[nH]nc(Cn2c(-c3ccccn3)nc3ccccc32)n1-c1ccc2c(c1)OCCO2` the “activity change, positive = activation” value was inactive: 12.7%.
With `CCCCn1c(CN2CCN(c3ccccc3)CC2)nc2c1c(=O)n(C)c(=O)n2C` the “activity change, positive = activation” value was inactive: -1.98%.
In the case of `O=C(NNc1nc(-c2ccccc2)cs1)c1ccc(F)cc1`, the Potency is reported as inconclusive [activator, partial curve, poor fit].
For `CCCn1c(/C=C/c2ccco2)nc2ccccc21`, the Potency was inconclusive [activator, full curve, poor fit].
With `CCOc1ccc(NC(=S)N(CCc2c(C)[nH]c3ccccc23)Cc2cccnc2)cc1` the “activity change, positive = activation” value was inactive: -2.57%.
In the case of `O=C(Nc1ccc2oc(Cc3ccc(Cl)cc3)nc2c1)c1cccnc1`, the “activity change, positive = activation” value is reported as inactive: -6.74%.
In the case of `CC(C)NC(=O)/C(C#N)=C\c1ccc(N(C)C)c(Br)c1`, the Potency is reported as inconclusive [activator, partial curve, poor fit].
In the case of `CC(C)c1ccc(-c2cc(C(=O)N3N=C(C(F)F)CC3(O)C(F)F)c3ccccc3n2)cc1` (stereo not drawn), the Potency is reported as inconclusive [activator, partial curve, poor fit].
For `Cc1ccc(S(=O)(=O)CC(=O)N2CCCC2)cc1`, the Potency was inconclusive [activator, partial curve, poor fit].
In the case of `Cc1sc2c(c1C)C(=O)NC(c1cccc(O)c1)N2` (stereo not drawn), the Potency is reported as inconclusive [activator, single point].
For `Cc1nc(NCCc2ccccc2)c2nnn(Cc3ccccc3)c2n1`, the Potency was inconclusive [activator, single point].
For `FC(F)Sc1ccc(NC(=S)NCc2ccccc2)cc1`, the “activity change, positive = activation” value was inactive: 3.4%.
With `Cc1ccc(NC(=O)c2cc3ccccc3o2)cc1S(=O)(=O)N(C)C` the Potency was inconclusive [activator, full curve, poor fit].
In the case of `Cc1nc(N2CCCCC2)sc1C(=O)c1ccc(SCCO)c([N+](=O)[O-])c1`, the Potency is reported as inconclusive [activator, partial curve].
In the case of `O=C(c1ccccc1)c1ccc(Oc2ncccn2)cc1`, the Potency is reported as inconclusive [activator, partial curve, poor fit].
In the case of `O=C(O)c1ccccc1N/N=C/c1cc(Br)cc(Br)c1O`, the Potency is reported as inconclusive [activator, partial curve, poor fit].
With `COc1ccc(CCC(C)N2CCC(CO)(Cc3ccccc3)CC2)cc1` (stereo not drawn) the Potency was inconclusive [activator, partial curve, poor fit].
For `O=C(NC(=S)Nc1ccc(N2CCCC2)cc1)c1ccccc1[N+](=O)[O-]`, the Potency was inconclusive [activator, full curve, poor fit].
For `Cc1ccc(NS(=O)(=O)c2ccc(C3CCCCC3)cc2)cc1`, the Potency was inconclusive [activator, partial curve, poor fit].
In the case of `CCOc1ccccc1OCCC(=O)N1CCN(S(=O)(=O)c2ccccc2[N+](=O)[O-])CC1`, the Potency is reported as inconclusive [activator, single point].
In the case of `COc1nc(N/N=C/c2ccc(-c3ccccc3[N+](=O)[O-])o2)nc(N2CCOCC2)n1`, the Potency is reported as inconclusive [activator, partial curve, poor fit].
For `COc1ccc2c(c1OC)C(=O)N(c1ccccn1)C2`, the Potency was inconclusive [activator, full curve, poor fit].
In the case of `N#CCC(=O)NNC(=S)Nc1ccccc1C(F)(F)F`, the “activity change, positive = activation” value is reported as inactive: -0.621%.
With `CCOC(=O)Cc1nn(C)c(=O)c2ccccc12` the “activity change, positive = activation” value was inactive: -2.42%.
For `O=C(CC1SCCNC1=O)Nc1cccc(Cl)c1` (stereo not drawn), the Potency was inconclusive [activator, single point].
